According to US20240058465A1 (SUTRO BIOPHARMA, published 2024):

Molecular target: human ROR1 (hROR1) (human, UniProt Q01973)
Assay: cell-based or functional assay

B1: Conjugate 3 (2188-D04-Y180-LP9) (antibody, human IgG1, kappa)
heavy: MEVQLVESGGGLVQPGGSLRLSCAASGFNISDYDIHWVRQAPGKGLEWVGGIDPADGSTDYADSVKGRFTISADTSKNTAYLQMNSLRAEDTAVYYCARDYGVYDYWGQGTLVTVSS[human IgG1 constant region cut from this listing]
light: [about 200 residues cut from this listing]
modifications: pAMF in place of HC-Y180 (EU numbering), conjugated to LP9 (DBCO-PEG4-VA-PBD)
Q: With B1 as the binder, how does the “cell killing on ROR1 positive NTERA-2 cells, EC50” value read?
A: The value was 0.3 pM.

Q: What about the “cell killing on ROR1 positive NTERA-2 cells, Span” value of the same binder?
A: Its value is 95%.
